Experimental data: the supplement of paper PMC8728848
Some of the results follow.

Assays:
Assay in all cases: glycan array binding signal (z-score within array); higher = stronger binding
Settings in all cases: glycan notation: IUPAC condensed, linker removed
[1] = biological target: Fuc(a1-2)[Gal(a1-3)]Gal(b1-4)Glc
Procedure, shortened: (§1)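 The binding signal is a Z-score computed within each array and averaged over linkers. Arrays of the same protein sequence at different concentrations or buffers were also averaged together. Data originate from 3228 arrays in the Consortium for Functional Glycomics database, kept only where the protein sequence was available.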

[2] = biological target: Fuc(a1-2)[Gal(a1-3)]Gal(b1-4)GlcNAc
Procedure, shortened: as §1

[3] = biological target: Fuc(a1-2)[Gal(a1-3)]Gal(b1-4)GlcNAc(b1-2)Man(a1-3)[Fuc(a1-2)[Gal(a1-3)]Gal(b1-4)GlcNAc(b1-2)Man(a1-6)]Man(b1-4)GlcNAc(b1-4)GlcNAc
Procedure, shortened: as §1

[4] = biological target: Fuc(a1-2)[Gal(a1-3)]Gal(b1-4)GlcNAc(b1-2)Man(a1-3)[Fuc(a1-2)[Gal(a1-3)]Gal(b1-4)GlcNAc(b1-2)Man(a1-6)]Man(b1-4)GlcNAc(b1-4)[Fuc(a1-6)]GlcNAc
Procedure, shortened: as §1

[5] = biological target: Fuc(a1-2)[Gal(a1-3)]Gal(b1-4)GlcNAc(b1-3)GalNAc
Procedure, shortened: as §1

[6] = biological target: Fuc(a1-2)[Gal(a1-3)]Gal(b1-4)[Fuc(a1-3)]Glc
Procedure, shortened: as §1

[7] = biological target: Fuc(a1-2)[Gal(a1-3)]Gal(b1-4)[Fuc(a1-3)]GlcNAc
Procedure, shortened: as §1

[8] = biological target: Fuc(a1-2)[Gal(a1-3)]Gal(b1-4)[Fuc(a1-3)]GlcNAc(b1-3)GalNAc
Procedure, shortened: as §1

[9] = biological target: Fuc(a1-2)[Gal(a1-4)]Gal(b1-4)GlcNAc
Procedure, shortened: as §1

[10] = biological target: Fuc(a1-2)[GalNAc(a1-3)]Gal
Procedure, shortened: as §1

[11] = biological target: Fuc(a1-2)[GalNAc(a1-3)]Gal(b1-3)GalNAc(a1-3)[Fuc(a1-2)]Gal(b1-4)GlcNAc
Procedure, shortened: as §1

[12] = biological target: Fuc(a1-2)[GalNAc(a1-3)]Gal(b1-3)GlcNAc
Procedure, shortened: as §1

[13] = biological target: Fuc(a1-2)[GalNAc(a1-3)]Gal(b1-3)GlcNAc(b1-2)Man(a1-3)[Fuc(a1-2)[GalNAc(a1-3)]Gal(b1-3)GlcNAc(b1-2)Man(a1-6)]Man(b1-4)GlcNAc(b1-4)GlcNAc
Procedure, shortened: as §1

[14] = biological target: Fuc(a1-2)[GalNAc(a1-3)]Gal(b1-3)GlcNAc(b1-2)Man(a1-3)[Fuc(a1-2)[GalNAc(a1-3)]Gal(b1-3)GlcNAc(b1-2)Man(a1-6)]Man(b1-4)GlcNAc(b1-4)[Fuc(a1-6)]GlcNAc
Procedure, shortened: as §1

[15] = biological target: Fuc(a1-2)[GalNAc(a1-3)]Gal(b1-3)GlcNAc(b1-3)GalNAc
Procedure, shortened: as §1

[16] = biological target: Fuc(a1-2)[GalNAc(a1-3)]Gal(b1-4)Glc
Procedure, shortened: as §1

[17] = biological target: Fuc(a1-2)[GalNAc(a1-3)]Gal(b1-4)GlcNAc
Procedure, shortened: as §1

[18] = biological target: Fuc(a1-2)[GalNAc(a1-3)]Gal(b1-4)GlcNAc(b1-2)Man(a1-3)[Fuc(a1-2)[GalNAc(a1-3)]Gal(b1-4)GlcNAc(b1-2)Man(a1-6)]Man(b1-4)GlcNAc(b1-4)GlcNAc
Procedure, shortened: as §1

[19] = biological target: Fuc(a1-2)[GalNAc(a1-3)]Gal(b1-4)GlcNAc(b1-2)Man(a1-3)[Fuc(a1-2)[GalNAc(a1-3)]Gal(b1-4)GlcNAc(b1-2)Man(a1-6)]Man(b1-4)GlcNAc(b1-4)[Fuc(a1-6)]GlcNAc
Procedure, shortened: as §1

[20] = biological target: Fuc(a1-2)[GalNAc(a1-3)]Gal(b1-4)GlcNAc(b1-3)Gal(b1-4)GlcNAc
Procedure, shortened: as §1

[21] = biological target: Fuc(a1-2)[GalNAc(a1-3)]Gal(b1-4)GlcNAc(b1-3)Gal(b1-4)GlcNAc(b1-3)Gal(b1-4)GlcNAc
Procedure, shortened: as §1

[22] = biological target: Fuc(a1-2)[GalNAc(a1-3)]Gal(b1-4)GlcNAc(b1-3)GalNAc
Procedure, shortened: as §1

[23] = biological target: Fuc(a1-2)[GalNAc(a1-3)]Gal(b1-4)[Fuc(a1-3)]GlcNAc
Procedure, shortened: as §1

[24] = biological target: Fuc(a1-2)[GalNAc(a1-3)]Gal(b1-4)[Fuc(a1-3)]GlcNAc(b1-3)GalNAc
Procedure, shortened: as §1

[25] = biological target: Fuc(a1-2)[GalNAc(a1-4)]Gal(b1-4)GlcNAc
Procedure, shortened: as §1

[26] = biological target: Fuc(a1-2)[GalNAc(b1-3)]Gal
Procedure, shortened: as §1

Fuc(a1-3)GlcNAc = biological target: Fuc(a1-3)GlcNAc
Procedure, shortened: as §1

[27] = biological target: Fuc(a1-3)[Gal(b1-4)]Glc6S
Procedure, shortened: as §1

[28] = biological target: Fuc(a1-3)[Gal(b1-4)]GlcNAc
Procedure, shortened: as §1

[29] = biological target: Fuc(a1-3)[Gal(b1-4)]GlcNAc(b1-2)Man(a1-3)[Fuc(a1-3)[Gal(b1-4)]GlcNAc(b1-2)Man(a1-6)]Man(b1-4)GlcNAc(b1-4)GlcNAc
Procedure, shortened: as §1

[30] = biological target: Fuc(a1-3)[Gal(b1-4)]GlcNAc(b1-2)Man(a1-3)[Fuc(a1-3)[Gal(b1-4)]GlcNAc(b1-2)Man(a1-6)]Man(b1-4)GlcNAc(b1-4)[Fuc(a1-6)]GlcNAc
Procedure, shortened: as §1

[31] = biological target: Fuc(a1-3)[Gal(b1-4)]GlcNAc(b1-3)Gal(b1-3)[Fuc(a1-4)]GlcNAc
Procedure, shortened: as §1

[32] = biological target: Fuc(a1-3)[Gal(b1-4)]GlcNAc(b1-3)GalNAc
Procedure, shortened: as §1

[33] = biological target: Fuc(a1-3)[Gal(b1-4)]GlcNAc(b1-4)Gal(b1-4)[Fuc(a1-3)]GlcNAc
Procedure, shortened: as §1

[34] = biological target: Fuc(a1-3)[Gal(b1-4)]GlcNAc(b1-4)Gal(b1-4)[Fuc(a1-3)]GlcNAc(b1-4)Gal(b1-4)[Fuc(a1-3)]GlcNAc
Procedure, shortened: as §1

[35] = biological target: Fuc(a1-3)[Gal(b1-4)]GlcNAc(b1-6)GalNAc
Procedure, shortened: as §1

[36] = biological target: Fuc(a1-3)[Gal(b1-4)]GlcNAc(b1-6)[Gal(b1-3)GlcNAc(b1-3)]Gal(b1-4)Glc
Procedure, shortened: as §1

[37] = biological target: Fuc(a1-3)[Gal(b1-4)]GlcNAc(b1-6)[Neu5Ac(a2-3)Gal(b1-3)]GalNAc
Procedure, shortened: as §1

[38] = biological target: Fuc(a1-3)[Gal(b1-4)]GlcNAc6S
Procedure, shortened: as §1

[39] = biological target: Fuc(a1-3)[Gal3S(b1-4)]GlcNAc
Procedure, shortened: as §1

[40] = biological target: Fuc(a1-3)[Gal3S(b1-4)]GlcNAc6S
Procedure, shortened: as §1

[41] = biological target: Fuc(a1-3)[GalNAc(b1-4)]GlcNAc
Procedure, shortened: as §1

Fuc(a1-4)GlcNAc = biological target: Fuc(a1-4)GlcNAc
Procedure, shortened: as §1

Fuc(b1-3)GlcNAc = biological target: Fuc(b1-3)GlcNAc
Procedure, shortened: as §1

Gal(a1-2)Gal = biological target: Gal(a1-2)Gal
Procedure, shortened: as §1

B1: CV-2L (Chromobacterium violaceum), Q7NX84 (protein)
chain: MAQQGVFTLPARINFGVTVLVNSAATQHVEIFVDNEPRAAFSGVGTGDNNLGTKVINSGSGNVRVQITANGRQSDLVSSQLVLANKLNLAVVGSEDGTDMDYNDSIVILNWPLG
What does the source list for B1?
glycan array binding signal (z-score) [1]: -0.344; glycan array binding signal (z-score) [2]: -0.342; glycan array binding signal (z-score) [3]: -0.33; glycan array binding signal (z-score) [4]: -0.257; glycan array binding signal (z-score) [5]: -0.331; glycan array binding signal (z-score) [6]: -0.019; glycan array binding signal (z-score) [7]: -0.313; glycan array binding signal (z-score) [8]: -0.294; glycan array binding signal (z-score) [9]: -0.086; glycan array binding signal (z-score) [10]: -0.2; glycan array binding signal (z-score) [11]: -0.34; glycan array binding signal (z-score) [12]: -0.347; glycan array binding signal (z-score) [13]: -0.316; glycan array binding signal (z-score) [14]: -0.083; glycan array binding signal (z-score) [15]: -0.293; glycan array binding signal (z-score) [16]: -0.309; glycan array binding signal (z-score) [17]: -0.34; glycan array binding signal (z-score) [18]: -0.325; glycan array binding signal (z-score) [19]: -0.222; glycan array binding signal (z-score) [20]: 0.184; glycan array binding signal (z-score) [21]: -0.266; glycan array binding signal (z-score) [22]: -0.34; glycan array binding signal (z-score) [23]: -0.059; glycan array binding signal (z-score) [24]: -0.328; glycan array binding signal (z-score) [25]: 0.033; glycan array binding signal (z-score) [26]: -0.332; glycan array binding signal (z-score) (Fuc(a1-3)GlcNAc): 1.49; glycan array binding signal (z-score) [27]: 0.315; glycan array binding signal (z-score) [28]: -0.156; glycan array binding signal (z-score) [29]: -0.265; glycan array binding signal (z-score) [30]: -0.345; glycan array binding signal (z-score) [31]: 0.884; glycan array binding signal (z-score) [32]: -0.324; glycan array binding signal (z-score) [33]: -0.267; glycan array binding signal (z-score) [34]: -0.252; glycan array binding signal (z-score) [35]: -0.317; glycan array binding signal (z-score) [36]: -0.288; glycan array binding signal (z-score) [37]: -0.317; glycan array binding signal (z-score) [38]: -0.291; glycan array binding signal (z-score) [39]: -0.3; glycan array binding signal (z-score) [40]: -0.316; glycan array binding signal (z-score) [41]: -0.288; glycan array binding signal (z-score) (Fuc(a1-4)GlcNAc): 1.03; glycan array binding signal (z-score) (Fuc(b1-3)GlcNAc): -0.347; glycan array binding signal (z-score) (Gal(a1-2)Gal): -0.339
